# Among all 310,000 compounds or so, about 2,200 (0.71%) showed an effect of 50% or more. The effect is printed as a negative number. The list shows a part of the results.
# Molecular target: human ether-à-go-go-related gene (hERG) potassium channel (human, UniProt Q12809)
# Test: primary screen, population patch clamp on CHO cells stably expressing hERG
# Chain of human ether-à-go-go-related gene (hERG) potassium channel (Q12809 whole entry, looked up): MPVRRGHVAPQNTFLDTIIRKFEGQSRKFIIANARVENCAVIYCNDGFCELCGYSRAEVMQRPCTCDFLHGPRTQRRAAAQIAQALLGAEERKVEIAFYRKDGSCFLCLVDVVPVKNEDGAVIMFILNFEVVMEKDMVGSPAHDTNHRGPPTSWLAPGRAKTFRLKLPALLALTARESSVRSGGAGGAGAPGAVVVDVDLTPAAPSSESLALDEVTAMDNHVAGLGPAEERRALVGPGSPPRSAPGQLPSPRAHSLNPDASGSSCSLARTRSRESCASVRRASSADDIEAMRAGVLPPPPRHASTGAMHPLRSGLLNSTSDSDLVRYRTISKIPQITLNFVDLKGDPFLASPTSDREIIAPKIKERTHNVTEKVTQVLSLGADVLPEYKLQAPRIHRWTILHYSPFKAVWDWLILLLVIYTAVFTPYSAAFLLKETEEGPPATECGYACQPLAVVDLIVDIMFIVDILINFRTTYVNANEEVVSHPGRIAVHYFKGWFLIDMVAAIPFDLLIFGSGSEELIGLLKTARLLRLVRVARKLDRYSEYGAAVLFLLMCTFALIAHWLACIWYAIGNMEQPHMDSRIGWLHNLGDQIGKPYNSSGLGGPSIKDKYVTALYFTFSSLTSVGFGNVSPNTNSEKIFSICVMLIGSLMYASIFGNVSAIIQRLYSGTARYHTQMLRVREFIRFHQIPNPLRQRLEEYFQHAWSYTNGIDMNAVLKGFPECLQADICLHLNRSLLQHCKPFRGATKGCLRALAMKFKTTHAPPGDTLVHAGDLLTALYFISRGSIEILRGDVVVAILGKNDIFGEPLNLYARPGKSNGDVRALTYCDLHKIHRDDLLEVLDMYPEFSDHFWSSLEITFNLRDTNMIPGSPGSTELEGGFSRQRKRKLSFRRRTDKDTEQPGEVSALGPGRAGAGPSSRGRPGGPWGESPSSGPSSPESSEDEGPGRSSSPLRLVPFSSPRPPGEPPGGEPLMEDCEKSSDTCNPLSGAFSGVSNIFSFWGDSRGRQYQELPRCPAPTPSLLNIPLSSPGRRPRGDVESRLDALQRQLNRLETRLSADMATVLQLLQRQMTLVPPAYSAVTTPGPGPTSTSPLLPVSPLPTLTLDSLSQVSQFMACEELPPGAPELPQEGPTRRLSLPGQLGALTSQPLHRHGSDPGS
row,SMILES,"hERG current change (%, negative = inhibition) at 1uM [%]"
1,CC(=O)N1CCN(c2ccc(NC(=O)c3cccc(Cl)c3)cc2)CC1,0.608
2,COc1ccc(C(=O)NCC(=O)N/N=C/c2ccc([N+](=O)[O-])o2)cc1OC,1.92
3,Cc1cc(=O)[nH]c(=S)[nH]1,13.7
4,OCCN(CCO)Cc1ccc(Br)cc1,9.17
5,COc1ccc(/C=C2/SC(=O)N(CCNC(=O)CC(NC(C)=O)c3ccccc3)C2=O)cc1 (stereo not shown),8.73
6,CC(C)c1cc(C(N)=O)c(NC(=O)c2cccc(COc3ccc(Cl)cc3)c2)s1,11.6
7,CCCNC(=O)c1cccc(C(F)(F)F)c1,10.3
8,CCOCCCNC(=O)c1ccc(OC)cc1,19.5
9,O=C(c1ccc(S(=O)(=O)Nc2ccccc2)cc1)N1CCCC(C(F)(F)F)C1 (stereo not shown),9.22
10,COc1ccc(NC(=O)CCC(=O)N/N=C/c2cn(C)nc2C)cc1,10.4
11,Br.Cc1ccccc1Cn1ccc(=NCc2ccccc2)cc1,9.1
12,O=C(CSc1ccccn1)Nc1ccc(Br)cn1,2.27
13,CC(c1ccccn1)N(CCN(C)C)C(=S)Nc1ccccc1F (stereo not shown),-2.6
14,CCOC(=O)N1CCN(S(=O)(=O)c2cc(OCC(=O)NC3CCCCC3)c(C)cc2Cl)CC1,-13.5
15,COc1cccc(N(C(=O)c2snc(C(N)=O)c2N)C(C(=O)NCC2CCCO2)c2c[nH]c3ccccc23)c1 (stereo not shown),1.83
16,c1ccc(-c2csc(N3CCSCC3)n2)cc1,17.2
17,Cc1ccc(/C=N/NC(=O)c2ccc(-n3cnnn3)cc2)cc1,11.8
18,O=C(O)CNC(=O)c1ccc(Oc2c(F)c(F)c(Oc3ccc(C(=O)NCC(=O)O)cc3)c(F)c2F)cc1,7.26
19,CN(Cc1ccccc1)C(=O)COc1ccc(-c2nnco2)cc1,16.6
20,COc1ccc(C(=O)Nc2nnc(SCC(=O)NCC3CCCO3)s2)cc1OC (stereo not shown),15.1
21,CC(C)(C)c1ccc(OCCNCc2ccccc2)cc1.O=C(O)C(=O)O,10.9
22,O=[N+]([O-])c1ccc(O)c2cccnc12,11.5

row,SMILES,"hERG current change (%, negative = inhibition) at 1uM [%]"
1,CCCN(CC(=O)Nc1ccccc1OC)C(=O)c1ccc(=O)[nH]c1,9.6
2,CC(=O)N1CCN(C(=O)COC(=O)CNC(=O)c2ccccc2C)CC1,11
3,COC(=O)Cc1[nH]nc2c1C(c1cccc(OC)c1OC)C(C#N)=C(N)O2 (stereo not shown),-5.2
4,O=C(c1ccc2c(c1)N(Cc1ccc(F)cc1)C(=O)c1ccccc1S2(=O)=O)N1CCN(c2ccccn2)CC1,9.97
5,CCCOC1CCCN(C(=O)c2ccc(OC)c(OC3CCN(C(C)C)CC3)c2)C1 (stereo not shown),8.18
6,C/C(=N\NS(=O)(=O)c1ccc(C)cc1)c1cc2ccccc2oc1=O,5.59
7,O=Cc1cc2ccccc2nc1SCc1ccc(Cl)c(Cl)c1,2.75
8,Cc1ccc(S(=O)(=O)N2CCN(C(=O)CSc3nc(N)cc(=O)[nH]3)CC2)c(C)c1,14.3
9,O=C(CSc1ncn[nH]1)Nc1nc(-c2cccc([N+](=O)[O-])c2)cs1,3.46
10,O=C1c2cccnc2C(O)N1Cc1cccs1 (stereo not shown),-3.71
11,COc1ccc2nc(C)cc(SCC(=O)NNC(=O)COc3ccc(C)cc3)c2c1,18.1
12,N#CC1=C(N)OC2=C(C(=O)CCC2)C1Cc1ccccc1 (stereo not shown),5.91
13,Cc1cc(C)cc(N(C(=O)Cn2nnc3ccccc32)C(C(=O)NCc2ccco2)c2ccncc2)c1 (stereo not shown),-6.28
14,COc1ccc(C(=O)COC(=O)CCC(=O)c2cccs2)cc1,3.5
15,O=C(c1cc(-c2ccncc2)nc2c(Cl)cccc12)N1CCN(c2ccccc2F)CC1,-23.3
16,C/C(=N\N1CCN(Cc2ccc(Cl)cc2)CC1)c1ccc([N+](=O)[O-])cc1,-37.2
17,CC(=O)Nc1ccc(S(=O)(=O)N2CCC3(CC2)CC(=O)c2ccccc2O3)cc1,-13.2
18,COc1ccc(OCCN(C)C(=O)c2cccc(S(=O)(=O)N(C)c3ccccc3)c2)cc1,-6.1
19,O=C(CN(C(=O)c1csnn1)c1ccccc1F)NCc1ccccc1,0.213
20,CCCN1C(=O)SC(CC(=O)Nc2ccc(Br)cc2)C1=O (stereo not shown),9.32
21,Cc1ccccc1NC(=O)c1cc([N+](=O)[O-])ccc1NCCN1C(=O)CCC1=O,11.7
22,CCOc1ccccc1NC(=S)NC(=O)C1CC1,12.2

row,SMILES,"hERG current change (%, negative = inhibition) at 1uM [%]"
1,O=C(Nc1ccc(F)cc1)N(Cc1cccs1)Cc1cc2cc3c(cc2[nH]c1=O)OCO3,16.6
2,Cc1cccc(N(C(=O)c2snc(C(N)=O)c2N)C(C(=O)NCc2ccccc2)c2ccncc2)c1 (stereo not shown),11.1
3,COc1ccccc1CNC(=O)C(CCSC)NC(=O)C1CCC(C)CC1 (stereo not shown),15.6
4,COc1ccccc1OCC(=O)NNC(=O)c1cccs1,7.84
5,NC(=O)C1CCCN(C(=O)c2ccc(NC(=O)c3cccs3)cc2)C1 (stereo not shown),0.985
6,COc1ccc(-c2c(C)nn3c(N4CCN(Cc5ccccc5)CC4)cc(C)nc23)cc1OC,10.6
7,CCCCn1c(N)c(N(CCOC)C(=O)C2CCN(S(=O)(=O)c3ccccc3)CC2)c(=O)[nH]c1=O,-6.82
8,CCSc1nc2ccccc2c(=O)n1OCC(=O)OC,11
9,O=C(c1ccc(N2CCOCC2)cc1[N+](=O)[O-])N1CCOCC1,9.97
10,CCn1nnc(NC(=O)c2cc3ccccc3o2)n1,8.64
11,COc1ccccc1/C=C/C(=O)NC(=S)N1CCOCC1,15.6
12,Cn1c(=O)n(C)c2cc(NS(=O)(=O)c3ccc(Br)s3)ccc21,14.5
13,Cc1[nH]c2ccccc2c1C(c1ccncc1)N1CCN(c2ccc(F)cc2)CC1 (stereo not shown),12.3
14,OCC[C@@H]1C[C@@H](O)[C@H](O)[C@@]2(Cc3ccccc3CCO2)O1,16.8
15,CCCCC(=O)Nc1ccc(N2CCCC2)cc1,6.04
16,C/C(Cc1ccccc1)=N\NC(=O)C1CCCCC1,6.6
17,CCN1CCN(C(=S)NCC(C)C)CC1.O=C(O)C(=O)O,14.5
18,COc1ccc(/C=C/C(=O)N(C(C)C)C(C)C)cc1Br,2.94
19,CC1(c2ccccc2)CC(C)(C)N2C(=O)Cc3cccc1c32 (stereo not shown),8.13
20,CC1C(=O)Nc2ccccc2N1C(=O)c1c(F)cccc1F (stereo not shown),5.05
21,CNS(=O)(=O)c1cccc(C(=O)OCC(=O)NC(C)CCc2ccccc2)c1 (stereo not shown),12.3
22,CCCOC1CCCN(C(=O)c2cc(Cl)c(Cl)cc2C(=O)O)C1 (stereo not shown),14.1

row,SMILES,"hERG current change (%, negative = inhibition) at 1uM [%]"
1,Cc1ccc(N(CC(=O)NC(C)c2ccccc2)S(=O)(=O)c2c(C)n[nH]c2C)cc1 (stereo not shown),-4.71
2,COc1ccc(/C(O)=C2\C(=O)C(=O)N(c3cc(C)on3)C2c2ccc(OC)c(OC)c2)cc1OC (stereo not shown),9.33
3,CCOC(=O)N1CC(=O)Nc2ccc(Br)cc2C1c1ccccc1 (stereo not shown),7.76
4,CCCC(=O)NC(Oc1ccc(C(C)=O)cc1)C(Cl)(Cl)Cl (stereo not shown),1.31
5,O=C(NCCC1CCCCN1S(=O)(=O)c1ccccc1)C(=O)NCc1ccco1 (stereo not shown),10.5
6,CCn1cc(C(=O)N(C)c2cc(C)ccc2OC)c2cc(OC)c(OC)cc2c1=O,10.8
7,O=S(=O)(Nc1ccc(Cl)cc1)c1cccc2nsnc12,9.14
8,COc1ccc(NC(=O)CCN2CCCCC2)cc1,10.6
9,Cc1cc(C)n(-c2ccc(C(=O)OCC(=O)Nc3ccccc3[N+](=O)[O-])cc2)n1,11.2
10,CC1CCCN(C(=O)c2ccccc2OC2CCN(S(C)(=O)=O)CC2)C1 (stereo not shown),10.3
11,CC(=O)c1ccc(NC(=O)CSc2nc(N3CCOCC3)nc(N3CCOCC3)n2)cc1,2.69
12,CN1CCN(CCc2nc3cc(NC(=O)COc4ccc(Cl)cc4)ccc3n2C)CC1,-7.52
13,CCN1/C(=C2\C(=O)N(C)C(=S)N2c2ccccc2)C=Cc2ccccc21,3.7
14,O=C(Cc1n[nH]c(=O)c2ccccc12)Nc1cc(Cl)ccc1-n1cncn1,-9.66
15,C/C(=C\C(=O)N1CCc2ccccc21)C(=O)O,13.3
16,Nc1cccc(CCc2ccncc2)c1,13.7
17,COc1ccc(C(=O)Nc2ccc(S(=O)(=O)NC(C)=O)cc2)cc1[N+](=O)[O-],9.41
18,CCCOc1cccc(C(=O)N/N=C/c2coc3ccccc3c2=O)c1,14.5
19,CC1(C)C2C/C(=N\O)C(C)(/[N+]([O-])=C/c3cccc([N+](=O)[O-])c3)CC21 (stereo not shown),7.22
20,Cc1ccc(-c2noc(CC(c3ccccc3)c3ccccc3)n2)cc1,3.71
21,O=C(NCCC(c1ccccc1)c1ccccc1)c1cnccn1,5.87
22,CC(=O)NC(Cc1c[nH]c2ccccc12)C(=O)Nc1ccc2c(c1)OCO2 (stereo not shown),10.9

# Reference: publication PMC4336329 (PLoS ONE, 2015)
